Data: the RNAGym collection of RNA variant scans (doi:10.1093/nar/gkz1192)
Read counts are not given, so values of variants with three or more changes are uncertain.

B1: CPEB3 Ribozyme (parent)
chain: UAACAGGGGGCCACAGCAGAAGCGUUCACGUCGCAGCCCCUGUCAGAUUCUGGUGAAUCUGCGAAUUCUGCUGUAUAUCUC

Variants of: B1
Assay: self-cleavage, relative activity (ratio to wild type); higher = more cleavage; in vitro, sequencing
Outline: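 After error-prone PCR and barcoding, CPEB3 ribozyme mutant libraries were transcribed with T7 RNA polymerase at 37°C for 5 hours, then given 15 min with DNase I before an EDTA stop, and they cleaved during both steps. Reverse transcription with template switching preceded Illumina sequencing. Relative activity divides a variant's cleaved/total read fraction by the unmutated ribozyme's. At least 5 reads were required per variant, and three batches were averaged.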

Variant	self-cleavage
C11G A13G A15U A56G A57U U60A U72C	0.14
C11G A13G A18G U49C U51A U72A U78A	0.06
C11G A13G U43A U60C C62U	0.06
C11G A13U A18G A21G U66C A75G	0.15
C11G A13U A18U A21G U48C U76C U78C	0.03
C11G A13U A20G	0.22
C11G A13U A20G G24A U41C A65G	0.07
C11G A13U U25C A28G U49C	0.05
C11G A13U U54C A56U U69A U74C	0.13
C11G A15C A21G	0.39
C11G A15G A20U U26C U66C	0.12
C11G A15G U26C U78C	0.41
C11G A15G U49G	0.13
C11G A15U A20C C38U A56G U58A U80C	0.04
C11G A15U A20G A28G G53A A56U	0.03
C11G A15U C23U C27U C44G U58A U74C	0.07
C11G A15U C39U U43A	0.45
C11G A15U G19A C44A	0.15
C11G A15U U41A U74C	0.8
C11G A18G A28U A35U U72A U78C	0.04
C11G A18G A45U	0.08
C11G A18G C23A U49A A56G C68A	0.13
C11G A18G C29U U66G	0.07
C11G A18G G33A U49C U72C	0.05

Variant	self-cleavage
C11G A18G G52C U72A U76C	0.13
C11G A18G U25A U26A U31A C38A A45C	0.02
C11G A18G U26C U43C U58C	0.18
C11G A18U G24C U60C U76C	0.02
C11G A18U U25A U69C U74A	0.05
C11G A18U U25C A56G U72C U74C	0.05
C11G A18U U49C U51G A64G C68A U80C	0.02
C11G A20G A21G U43C U60C	0.36
C11G A20G A28C U43A U54C U60C U69A	0.03
C11G A20G A35G U41C U58C C59A	0.05
C11G A20G A64G U72A	0.41
C11G A20G C29U A35U A45G	0.08
C11G A20G C39A U41C A57G A64G U78C	0.04
C11G A20G U26C C40A U80A	0.04
C11G A20G U26C U31C A45U	0.32
C11G A20G U31A G33U	0.23
C11G A20G U51C U54A U69C	0.36
C11G A20U A28G U41C U43A U54C	0.05
C11G A20U U26C U66C U74C	0.27
C11G A20U U43C C81U	0.09
C11G A21G A28U U78G	0.35
C11G A21G A45G A47G A57U	0.23
C11G A21G C32G U48C	0.07
C11G A21G G30U	0.19

Variant	self-cleavage
C11G A21G U41A C62U	0.28
C11G A21G U49C	0.33
C11G A21G U54G	0.39
C11G A21U G52A U60G	0.06
C11G A28C A77G	0.13
C11G A28G A45U A56U A57G U72C U78C	0.07
C11G A28G U41G U43C U58C A64U	0.12
C11G A28G U51C U54C	0.11
C11G A28G U54C U72C	0.09
C11G A28U U31C U41C U60C U69A A75G	0.11
C11G A35G A56G U74C	0.47
C11G A35U A47G	0.49
C11G A35U A64G	0.11
C11G A35U C50U	0.09
C11G A35U G63A A65G	0.04
C11G A45G U48C U58C U78C	0.12
C11G A45U A65G	0.13
C11G A47G A77G	0.61
C11G A47G U72C U74C U80C	0.88
C11G A47G U80C	0.46
C11G A56C A77G	0
C11G A56G U60C U69A	0.1
C11G A57G U58A U80C	0.22
C11G A57G U58C	0.06

Variant	self-cleavage
C11G A57U U58G C68A	0.04
C11G C12A A18U A45G U67C	0.06
C11G C17U U25C C40U U49C U78C	0.04
C11G C17U U43A A64G U72A U74C U78C	0.03
C11G C23G A64G	0.05
C11G C23U G33C C62G A65G	0.03
C11G C27U G30U U41A A47G A65G U72A	0.03
C11G C32A C37U A45G A56G	0.18
C11G C32A U41G A45G A56G	0.06
C11G C39G U41C U72C A75G	0.06
C11G C40A A45G G63A A65U	0.07
C11G C40U U49C G63U U69A U76G	0.03
C11G G16A U60C	0.05
C11G G19A A20G U66C U67C U69A U72A	0.05
C11G G19A U25G A35G G55A U78A C81A	0.06
C11G G19C A20G U76A U80C	0.1
C11G G19U U25C A35G A45G	0.05
C11G G19U U26A A45U U72C	0.06
C11G G19U U60C U72A	0.07
C11G G22A U25C A28C A47G	0.08
C11G G24A G33A G53C U76C	0.06
C11G G24A U72C	0
C11G G30A U41A A75G	0.04
C11G G33A G61A U66C	0.06

Variant	self-cleavage
C11G G33A U41A U72C	0.04
C11G G33A U41C U78C	0.14
C11G G46U A47G U48C U51C A57G	0.07
C11G G46U U54A U60A	0.07
C11G U25C A45G U54C U78A	0.05
C11G U25C A56G G70U A77G	0.08
C11G U25C A56G U60C A77U	0.05
C11G U25C G33A U41A	0.05
C11G U25C U41A A56G G63A	0.08
C11G U25C U60A	0.32
C11G U26A A35G A47G U54C A57G U72C	0.04
C11G U26A A45G A57G	0.07
C11G U26A G30U U67C	0.04
C11G U26A G36U U41C U72C U76C	0.07
C11G U26A U41C A45U U60C G73A	0.06
C11G U26C A28U C29U U31C A64G U72C	0.04
C11G U26C A45C	0.31
C11G U26C C38U U51A U69C	0.03
C11G U26C U31A	0.2
C11G U26C U31C U43A U51C U72C U80C	0.07
C11G U26C U31C U48C A64U C71G U80A	0.02
C11G U26C U43A A47G U54A U80C	0.06
C11G U26C U48A U51A	0.22
C11G U26C U51A	0.38

Variant	self-cleavage
C11G U31A A35U U41A U43A C81U	0.06
C11G U31A U41C U43C U69C U78C	0.05
C11G U31A U51A A77G U78C	0.05
C11G U31C A64U U69C	0.16
C11G U31C A77G	0.24
C11G U31C U49C U72A	0.05
C11G U31C U51G U54C G63A U66C	0.06
C11G U41A U72C	0.07
C11G U41C U51A U58C U80C	0.15
C11G U41C U69A	0.25
C11G U43A A47G U74C	0.93
C11G U43A U48C	0.6
C11G U43C A56G U60A	0.26
C11G U43C U54C U66C U69C U74C	0.09
C11G U48A U51G U67C U74A	0.05
C11G U48A U67A	0.09
C11G U48C U49C U58C	0.08
C11G U48C U60C	0.14
C11G U49C A64G U76A	0.07
C11G U49C U58C A65G U72G	0.1
C11G U60A A77C	0.11
C11G U60A U72C U78A	0.21
C11G U66C U69A U74C	0.1
C11G U67A U69G	0.04

Variant	self-cleavage
C11G U69A U74G	0.12
C11G U69A U78C	0.09
C11G U69C C79U	0.26
C11G U72C U74A	0.72
C11G U72C U80A	0.55
C11U A13C C23G U25A U49C U51C	0.04
C11U A13G A35G	0.95
C11U A13G U43C	0.26
C11U A13U C37U A45G U69C	0.05
C11U A13U U41C	0.91
C11U A15G A18G U43C U49C A64U	0.06
C11U A15G A18U U26C	0.16
C11U A15G A21U U51G U69A	0.05
C11U A15G A35U U74C	0.36
C11U A15G C23U U41C A75C U78C	0.05
C11U A15G U25C G46U	0.06
C11U A15G U43A A75G	0.49
C11U A15G U58C	0.42
C11U A15U A18U C29U A47G U51C A57G	0.09
C11U A18C U51A	0.12
C11U A18G A20G G24U U43C U72C	0.06
C11U A18G A35U A45G U58C	0.15
C11U A18G A45C U54C	0.05
